# Assay results: the RNAGym collection of RNA variant scans (doi:10.7554/elife.90254)
# Read counts are not given, so values of variants with three or more changes are uncertain.
# B1: LINE1-mini (parent)
# chain: GGCAGAGCUCAACACAGCGUGGCAAAGUGGCUGUGGCUAGACUGCC
# Variants of: B1
# Test: self-cleavage, relative activity (ratio to wild type); higher = more cleavage; in vitro, sequencing; the parent is a self-cleaving ribozyme
row,Variant,self-cleavage
1,GGCAGAGCUCUACAUAGCGUGGCAAUGUGUUUGUGGCUAGAUUACC,0
2,GGCAGAGCUCUUCACAGCGUGGCAAAGUGGCUGUGGCGAGACUGCC,0.02
3,GGCAGAGCUCUACAACGCGUGGCAAACUGGCUGUGGCUAGACUGCU,0
4,GGCAGAGCUCGACACAGCGUGGCAAAGUGGCGGUGACUAGACUGCC,0.01
5,GGCAGAGCUCUACACAGCAUGGCAAAGUUGCGGUGGCUAGACUGCC,0.01
6,GGCAGAGCUCUACACAACGUCGCAAAGCGGCUGUGGCUAGACUGUC,0.02
7,GGCAGAGCUCUACACAGCGUGGAAAAGUGGCUAUGGCUAGACUGCC,0.01
8,GGCAGAGCUCUACACUGCGUGGCAAAGAGGCUGAGGCUAGACUGCC,0.06
9,GGCAGAGCUCUCCACAGCGUAGCAAAGUGGCUGUGGCUAGACUGCC,0.01
10,GGCAGAGCUCGACACAGCGUGGCAAAGUGGCUGUGGCUAGACUACU,0.03
11,GGCAGAGCUCUAAACAGCGUGGCAAAGUGGCUGUGGCUAUAGUGCC,0.05
12,GGCAGAGCUCUACACAGCCUGGCGAAGUUGCUGUGGCUAGACUGCC,0.09
13,GGCAGAGCUCUACACAGCGUGGCAGAGUGGCUGUGUCUAGACUGCU,0.01
14,GGCAGAGCUCUACACAGCGUGGCCAAGUGGCUUUGGCUAGACUGCC,0.01
15,GGCAGAGCUCUCUAGAGCGUGGCAAAGUGGCUGCGGCUAGACUGCC,0.02
16,GGCAGAGCUCGACACAGCGUGGCAAAGUGGCUGUUGCUACACUGCG,0
17,GGCAGAGCUCUACACAGCGUAGCAACGUCACAGUGACUAGAUUGCG,0
18,GGCAGAGCUCGACACAGCGUGCCAAAGUGGCUGUAGCUAGGCUGCC,0.01
19,GGCAGAGCUCUACAAAGCGUGGCAAAGUGGCUCUGGCUCGACUGCC,0

row,Variant,self-cleavage
1,GGCAGAGCUCUACACAGCUUGGCUAAGUGGCUGUGGCUAGACUGCC,0.14
2,GGCAGAGCUCUACACAUCGGGGCAAAGUGGCUGUGGCUAGACUUCU,0.02
3,GGCAGAGCUCUGCAUAGCGUGGGAAAGUAGCGGUGGCUAGACUGCC,0
4,GGCAGAGCUCGACACAGCGUGGCAAAGUGGCAGUGGGUAGACUGCC,0.01
5,GGCAGAGCUCUACACAGCGUGGCAAGGUGGCUGUGGCUACACUGCC,0.02
6,GGCAGAGCUCUACACAGCGUGACAAAGUGGCUGUGGCUAGACUGUC,0.2
7,GGCAGAGCUCUACACAGCGUGGCAAAGUGGAUGUAGCUAGACUGCC,0.02
8,GGCAGAGCUCUACACAGCGUGGCAAAGUGGGUGCGGCUAGGGUGCC,0
9,GGCAGAGCUCUACACAGCGUGGCCAAGUGGCUGAGGCUAGACUGCC,0.01
10,GGCAGAGCUCUACACGGCGUGGCAAAGCGGCUGUGGCUAGACAGCC,0
11,GGCAGAGCUCUACACAGCGUGGCAAAGUGGGUGUGGUUACACUGCC,0
12,GGCAGAGCUCUGCACAGCAUACCAACGUGGCUGUGGCUAGACUGCC,0
13,GGCAGAGCUCUACACAUCGUGGCAAAGUGGCUAUGCCUAGACUGCA,0.01
14,GGCAGAGCUCUAUACAGCGUGGCAAAGUGGCUGUGGGUAGACUGCC,0.01
15,GGCAGAGCUCGACACAGCGUGGCAAAGUGUAUGUGGCCAGUCUGCC,0.01
16,GGCAGAGCUCUAGACAGCGUGGCAAGUUGGCUGUGGCCAGACUGCC,0.02
17,GGCAGAGCUCUACAAAGCUUGGCAAACUGGCUGUGGCUAGACUGCC,0.01
18,GGCAGAGCUCUACAGAGCGUGGCAAAGUGGCUGUGACUAUACUGCC,0.04
19,GGCAGAGCUCGACACAGCGUGGCAAAGUGGCUGUGCCUAGACUGAC,0.01

row,Variant,self-cleavage
1,GGCAGAGCUCUACACACCGUGGCAAAGUGGCUUUGGCUAGAGUGCC,0
2,GGCAGAGCUCUACACAGCGUUGCCAAGUGGCUGAGGCUAGACUGCC,0.03
3,GGCAGAGCUCUACAUAGAGUGGCAAAGUGGCUGUGCCUAAACUGGC,0
4,GGCAGAGCUCUAAACAGCGUGGCAAAGAGGCUGUGGCUAGACUGCC,0.02
5,GGCAGAGCUCGACACAGCGUGGCAAAGUGGCAGUGGCUAGCCUGCC,0.02
6,GGCAGAGCUCUACACAGCGUGGCAAAGUGGAUGUGUCUAGACUGCC,0.01
7,GGCAGAGCUCGACACAGCGUGGCAAAGUGGCUGUGACUAGACUUCC,0.02
8,GGCAGAGCUCGACACAGCGUGCCAAAGUGGCUGUGGCUAGGCUGCC,0
9,GGCAGAGCUCUACACAGCGUGGCAAAGUGGCUGUGGGUAGCCUGCC,0.04
10,GGCAGAGCUCGACACAGCGUGGCAAACCGGCUGUGGCUAAACUGCC,0.01
11,GGCAGAGCUCUAGAUAGCGUCGAAAAGUGGCUGUGGCUAGACUGCU,0
12,GGCAGAGCUCUACACAGCGUGACCAAGUGGCUGUGGCUAAACUGCC,0.01
13,GGCAGAGCUCUACACAGAGCGGCAAAGUGGAUGUGGCUAUACUGCC,0.01
14,GGCAGAGCUCUUCACAGCGUGGCAAAGGGCCUGUGGCUAGACUGCC,0.03
15,GGCAGAGCUCGACACAGCGGUGCAAAGUGGCUGUGUCUAGACUGCC,0.02
16,GGCAGAGCUCUACACAGCGUGGGAAAGUGGCUGUGGCUAGGAUGCC,0.01
17,GGCAGAGCUCUACACAUCGUGGCAAAGUGGCUGCGGCUAGACUCAU,0.02
18,GGCAGAGCUCUAGACAGGGUGGCAAAGUGGCUGUGGCUAGUCUGAG,0
